Laboratory results reported in the supplement of paper PMC8728848.
This is one part of the list.

How the values were obtained:
Test in all cases: glycan array binding signal (z-score within array); higher = stronger binding
Conditions in all cases: glycan notation: IUPAC condensed, linker removed
[1] = target: Neu5Gc(a2-8)Neu5Gc(a2-3)Gal(b1-4)GlcNAc(b1-3)Gal(b1-4)GlcNAc
Outline: (§1)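 The Consortium for Functional Glycomics database supplied 3228 glycan arrays, of which those lacking an available protein sequence were dropped. The binding signal, a within-array Z-score, was averaged across arrays of the same protein sequence and across linkers. Negative scores can be read as non-binding.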

[2] = target: Neu5Gc(a2-8)Neu5Gc(a2-6)Gal(b1-4)GlcNAc
Outline: as §1

[3] = target: Neu5Gc(b2-6)Gal(b1-4)GlcNAc
Outline: as §1

B1: Als3-41 (Candida albicans) (protein)
chain: KTITGVFNSFNSLTWSNAATYNYKGPGTPTWNAVLGWSLDGTSASPGDTFTLNMPCVFKFTTSQTSVDLTAHGVKYATCQFQAGEEFMTFSTLTCTVSNTLTPSIKALGTVTLPLAFNVGGTGSSVDLEDSKCFTAGTNTVTFNDGGKKISINVDFERSNVDPKGYLTDSRVIPSLNKVSTLFVAPQCANGYTSGTMGFANTYGDVQIDCSNIHVGITKGLNDWNYPVSSESFSYTKTCSSNGIFITYKNVPAGYRPFVDAYISATDVNSYTLSYANEYTCAGGYWQRAPFTLRWTGYRNSDAGSNGIVIVATTRTVTDSTTAVTTLPFDPNRDKTKTIEILKPIPTTTITTSYVGVTTSYLTKTAPIGETATVIVD
glycan array binding signal (z-score) [1]: -0.322 | glycan array binding signal (z-score) [2]: -0.217 | glycan array binding signal (z-score) [3]: -0.289
